# Reference: PMC12820563
# The list shows a part of the results. The list includes weakly bound sequences.
# Molecular target: T1, MBP-FoxP3dN (UniProt Q99JB6)
# T1 sequence: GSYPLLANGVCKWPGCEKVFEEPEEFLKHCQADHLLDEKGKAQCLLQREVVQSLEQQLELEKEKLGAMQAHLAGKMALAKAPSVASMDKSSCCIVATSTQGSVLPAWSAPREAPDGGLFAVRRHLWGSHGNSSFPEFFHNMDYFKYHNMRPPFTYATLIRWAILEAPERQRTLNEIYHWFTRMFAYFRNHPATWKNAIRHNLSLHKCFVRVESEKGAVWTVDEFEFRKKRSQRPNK
# Assay: PD-seq (MBP pull-down with sequencing)
# Settings: 20 mM Tris-HCl pH 7.5, 100 mM NaCl, 1.5 mM MgCl2, 0.4 uM protein, 0.1 uM dsDNA library, 30 min, room temperature, amylose pull-down; high values mean tight binding; double strand, one strand shown
row,Sequence,binding signal (RPM ratio (pull-down/input))
1,GATGATTGTTCTCCCAGCTGATGAATTCTGCGAATCGAGTAAACAAATTTTCCTAATCTTTCTGTTCAAGCGCCATCTAC,0.31
2,GATGATTGTTCTCCCAGCTGATGAATTCGCGTCGTCGAGTAAACAAATTTTCCTAATCTTTCTGTTCAAGCGCCATCTAC,1.04
3,GATGATTGTTCTCCCAGCTGATGAATTTCTTTGATCGAGTAAACAAATTTTCCTAATCTTTCTGTTCAAGCGCCATCTAC,0.325
4,GATGATTGTTCTCCCAGCTGATGAATTTTTATACTCGAGTAAACAAATTTTCCTAATCTTTCTGTTCAAGCGCCATCTAC,0.36
5,GATGATTGTTCTCCCAGCTGATGAATTGAGAATTTCGAGTAAACAAATTTTCCTAATCTTTCTGTTCAAGCGCCATCTAC,1.13
6,GATGATTGTTCTCCCAGCTGATGAATTTCCTACTTCGAGTAAACAAATTTTCCTAATCTTTCTGTTCAAGCGCCATCTAC,0.259
7,GATGATTGTTCTCCCAGCTGATGAATTCAATCGATCGAGTAAACAAATTTTCCTAATCTTTCTGTTCAAGCGCCATCTAC,0.298
8,GATGATTGTTCTCCCAGCTGATGAATTTCTTTCTTCGAGTAAACAAATTTTCCTAATCTTTCTGTTCAAGCGCCATCTAC,0.349
9,GATGATTGTTCTCCCAGCTGATGAATTAAGACGGTCGAGTAAACAAATTTTCCTAATCTTTCTGTTCAAGCGCCATCTAC,0.236
10,GATGATTGTTCTCCCAGCTGATGAATTGGTTCAGTCGAGTAAACAAATTTTCCTAATCTTTCTGTTCAAGCGCCATCTAC,0.288
11,GATGATTGTTCTCCCAGCTGATGAATTTGGGGGTTCGAGTAAACAAATTTTCCTAATCTTTCTGTTCAAGCGCCATCTAC,0.751
12,GATGATTGTTCTCCCAGCTGATGAATTCCGATTTTCGAGTAAACAAATTTTCCTAATCTTTCTGTTCAAGCGCCATCTAC,0.861
13,GATGATTGTTCTCCCAGCTGATGAATTGCTTGAGTCGAGTAAACAAATTTTCCTAATCTTTCTGTTCAAGCGCCATCTAC,0.46
14,GATGATTGTTCTCCCAGCTGATGAATTAACGAAATCGAGTAAACAAATTTTCCTAATCTTTCTGTTCAAGCGCCATCTAC,0.313
15,GATGATTGTTCTCCCAGCTGATGAATTCAGCGATTCGAGTAAACAAATTTTCCTAATCTTTCTGTTCAAGCGCCATCTAC,0.973
16,GATGATTGTTCTCCCAGCTGATGAATTGTACACATCGAGTAAACAAATTTTCCTAATCTTTCTGTTCAAGCGCCATCTAC,1.75
17,GATGATTGTTCTCCCAGCTGATGAATTCTATATATCGAGTAAACAAATTTTCCTAATCTTTCTGTTCAAGCGCCATCTAC,1.18
18,GATGATTGTTCTCCCAGCTGATGAATTCCGCGACTCGAGTAAACAAATTTTCCTAATCTTTCTGTTCAAGCGCCATCTAC,1.91
19,GATGATTGTTCTCCCAGCTGATGAATTGTTGTGATCGAGTAAACAAATTTTCCTAATCTTTCTGTTCAAGCGCCATCTAC,6.31
20,GATGATTGTTCTCCCAGCTGATGAATTTGGGACTTCGAGTAAACAAATTTTCCTAATCTTTCTGTTCAAGCGCCATCTAC,0.537

row,Sequence,binding signal (RPM ratio (pull-down/input))
1,GATGATTGTTCTCCCAGCTGATGAATTGGATGCTTCGAGTAAACAAATTTTCCTAATCTTTCTGTTCAAGCGCCATCTAC,1.6
2,GATGATTGTTCTCCCAGCTGATGAATTTATTATATCGAGTAAACAAATTTTCCTAATCTTTCTGTTCAAGCGCCATCTAC,2.18
3,GATGATTGTTCTCCCAGCTGATGAATTGCTAAGGTCGAGTAAACAAATTTTCCTAATCTTTCTGTTCAAGCGCCATCTAC,0.42
4,GATGATTGTTCTCCCAGCTGATGAATTGAATTCATCGAGTAAACAAATTTTCCTAATCTTTCTGTTCAAGCGCCATCTAC,0.482
5,GATGATTGTTCTCCCAGCTGATGAATTCGTTCGCTCGAGTAAACAAATTTTCCTAATCTTTCTGTTCAAGCGCCATCTAC,0.308
6,GATGATTGTTCTCCCAGCTGATGAATTAAGCGAGTCGAGTAAACAAATTTTCCTAATCTTTCTGTTCAAGCGCCATCTAC,0.64
7,GATGATTGTTCTCCCAGCTGATGAATTCTATCTGTCGAGTAAACAAATTTTCCTAATCTTTCTGTTCAAGCGCCATCTAC,0.442
8,GATGATTGTTCTCCCAGCTGATGAATTTACTGCCTCGAGTAAACAAATTTTCCTAATCTTTCTGTTCAAGCGCCATCTAC,0.763
9,GATGATTGTTCTCCCAGCTGATGAATTCGACGTATCGAGTAAACAAATTTTCCTAATCTTTCTGTTCAAGCGCCATCTAC,0.744
10,GATGATTGTTCTCCCAGCTGATGAATTCTTTGAATCGAGTAAACAAATTTTCCTAATCTTTCTGTTCAAGCGCCATCTAC,0.231
11,GATGATTGTTCTCCCAGCTGATGAATTGGCTTAGTCGAGTAAACAAATTTTCCTAATCTTTCTGTTCAAGCGCCATCTAC,0.789
12,GATGATTGTTCTCCCAGCTGATGAATTTATACGATCGAGTAAACAAATTTTCCTAATCTTTCTGTTCAAGCGCCATCTAC,0.494
13,GATGATTGTTCTCCCAGCTGATGAATTGTATGACTCGAGTAAACAAATTTTCCTAATCTTTCTGTTCAAGCGCCATCTAC,0.793
14,GATGATTGTTCTCCCAGCTGATGAATTTTAATGGTCGAGTAAACAAATTTTCCTAATCTTTCTGTTCAAGCGCCATCTAC,0.647
15,GATGATTGTTCTCCCAGCTGATGAATTGGGGAGATCGAGTAAACAAATTTTCCTAATCTTTCTGTTCAAGCGCCATCTAC,0.248
16,GATGATTGTTCTCCCAGCTGATGAATTGTCCGTATCGAGTAAACAAATTTTCCTAATCTTTCTGTTCAAGCGCCATCTAC,0.432
17,GATGATTGTTCTCCCAGCTGATGAATTTGCATGCTCGAGTAAACAAATTTTCCTAATCTTTCTGTTCAAGCGCCATCTAC,3.98
18,GATGATTGTTCTCCCAGCTGATGAATTGTATAAATCGAGTAAACAAATTTTCCTAATCTTTCTGTTCAAGCGCCATCTAC,0.638
19,GATGATTGTTCTCCCAGCTGATGAATTTCTTTCATCGAGTAAACAAATTTTCCTAATCTTTCTGTTCAAGCGCCATCTAC,0.295
20,GATGATTGTTCTCCCAGCTGATGAATTAACCTCATCGAGTAAACAAATTTTCCTAATCTTTCTGTTCAAGCGCCATCTAC,0.352
